Source: PubChem BioAssay AID504832 (National Center for Advancing Translational Sciences (NCATS), 2011)
About 18,000 (5.8%) of roughly 310,000 compounds were called active. Inconclusive results, whose numbers are uncertain, are shown with a selection of clear calls. Calls follow the shape of the dose curve; as a rule, active = well fitted inhibition curve with a large enough effect; inconclusive = small, poorly fitted or top-dose-only effect, or another doubt; inactive = no such curve, though single readings can be large or run the other way. No potency is given beside an inconclusive call; the fits are too rough.

assay: Primary qHTS for delayed death inhibitors of the malarial parasite plastid, 48 hour incubation; settings: P. falciparum luciferase growth in erythrocytes; series mostly up to 28.7 µM
Procedure, shortened: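 Compounds are pin-transferred into medium, infected erythrocytes (2% hematocrit, 0.1% parasitemia final) are added, and plates sit one parasite generation at 37 C in 5% CO2. Detection reagent is then added and luminescence measured.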
Potency is read from the fitted curve at half-maximal effect; tags tell the direction and shape of the fitted curve.

Row | Compound | Potency
1 | Cc1nc2nc(CC(=O)O)[nH]n2c(=O)c1[N+](=O)[O-] | inactive
2 | CCCCCSc1nc2c(c(=O)[nH]c(=O)n2C)n1C(C)C | inconclusive [inhibitor, full curve, poor fit]
3 | COc1ccc(C(=O)CSc2nc(C(C)(C)C)nc3ccccc23)cc1 | inconclusive [inhibitor, single point]
4 | O=C(Nc1cc(Sc2ccccn2)cc([N+](=O)[O-])c1)c1ccc(Cl)cc1 | inconclusive [inhibitor, single point]
5 | CCc1nnc(NC(=O)CN2C(=O)NC3(CCCC3)C2=O)s1 | inconclusive [inhibitor, partial curve, poor fit]
6 | C=CCn1cccc(/C=C/C(=O)c2ccc(C(C)(C)C)cc2)c1=S | inconclusive [inhibitor, single point]
7 | O=C(/C=C/c1ccc(Cl)cc1)Nc1ccc(N2CCOCC2)cc1 | inactive
8 | CCOC(=O)C1CCN(S(=O)(=O)c2ccc3c(c2)NC(=O)CS3)CC1 | inactive
9 | CCC1Oc2ccc(C)cc2N(CC(=O)N(Cc2ccc3c(c2)OCO3)CC2CCCO2)C1=O (centres undefined) | inconclusive [inhibitor, single point]
10 | Cc1nccnc1Sc1ccccc1 | inactive
11 | COc1ccc(CN(C(=O)c2cnccn2)C(C(=O)NC(C)(C)C)c2cc(OC)c(OC)c(OC)c2)cc1 (centres undefined) | inconclusive [inhibitor, single point]
12 | O=C(N/N=C/c1ccc(Br)s1)c1cccs1 | inconclusive [inhibitor, full curve, poor fit]
13 | CCCCOc1ccc(C(=O)N/C(=C/C=C/c2ccccc2)C(=O)O)cc1 | inactive
14 | Cc1csc(NC(=O)c2ccc[nH]c2=O)n1 | inactive
15 | O=C(COc1ccc(F)cc1)Nc1ccc(-n2cnnn2)cc1 | inconclusive [inhibitor, partial curve, poor fit]
16 | COc1ccccc1-n1cnnc1SCC(=O)NC1CCCCC1 | inconclusive [inhibitor, single point]
17 | O=C1CCSc2ccc(Cl)cc2N1Cc1cccc(Cl)c1 | inconclusive [inhibitor, single point]
18 | C/C(CC(=O)Nc1cccc2c1CCCC2)=N\NC(=O)c1ccccc1N | inconclusive [inhibitor, partial curve]
19 | CC(=O)Nc1cccc(NC(=O)CSc2ccc(-c3ccco3)nn2)c1 | inconclusive [inhibitor, partial curve, poor fit]
